# Source: the supplement of paper PMC12217912
# This is one part of the list. The full chains were built here from the parent and the listed change. Values near 0.05 are background.
# B1: TEV protease; numbered along this chain (parent)
# chain: MGESLFKGPRDYNPISSSICHLTNESDGHTTSLYGIGFGPFIITNKHLFRRNNGTLVVQSLHGVFKVKDTTTLQQHLVDGRDMIIIRMPKDFPPFPQKLKFREPQREERICLVTTNFQTKSMSSMVSDTSCTFPSGDGIFWKHWIQTKDGQCGSPLVSTRDGFIVGIHSASNFTNTNNYFTSVPKNFMELLTNQEAQQWVSGWRLNADSVLWGGHKVFMVKPEEPFQPVKEATQL
# Variants of: B1
# Experiment: raw area under fraction-flipped curve 0-4 h after induction (AUC4h, not background-subtracted), DNA-recorder readout of cleavage of the substrate (dimensionless); higher = more cleavage of the substrate by the protease variant
# Details: temperature: 34 °C; time window: 0-4 h after rhamnose induction
# Procedure: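 In vivo DNA recorder in E. coli TOP10(DE3) ΔrhaA at 34 °C. Each TEVp single-site mutant (parent TEVp 0) is paired with a single-site variant of the 7-mer TEVs (canonical ENLYFQ|S). The substrate sits between flexible linkers in a Bxb1-sfGFP-TEVs-SsrA fusion, so cleavage stabilises Bxb1 and speeds flipping of a recombination array, read by NGS. The value is the raw area under the fraction-flipped curve over 0-4 h after rhamnose induction (AUC4h), with ≥20 reads per time point. It is not background-subtracted; inactive controls average about 0.047.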
# 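Also: Bxb1 expression induced with 0.2% (w/v) L-rhamnose at OD600 near 0.5, cultures sampled hourly, flipped fraction per protease–substrate barcode pair counted by paired-end Illumina sequencing.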
Variant,area with substrate EALYFQS,area with substrate ECLYFQS,area with substrate EDLYFQS,area with substrate EFLYFQS,area with substrate EHLYFQS,area with substrate EILYFQS,area with substrate EKLYFQS,area with substrate ELLYFQS,area with substrate EPLYFQS,area with substrate EQLYFQS,area with substrate ERLYFQS,area with substrate ESLYFQS,area with substrate ETLYFQS,area with substrate EWLYFQS,area with substrate EELYFQS,area with substrate EGLYFQS,area with substrate EMLYFQS,area with substrate EVLYFQS,area with substrate EYLYFQS
MGESLFKGPRDYNPISSSICHLTNESDGHTTSLYGIGFDPFIITNKHLFRRNNGTLVVQSLHGVFKVKDTTTLQQHLVDGRDMIIIRMPKDFPPFPQKLKFREPQREERICLVTTNFQTKSMSSMVSDTSCTFPSGDGIFWKHWIQTKDGQCGSPLVSTRDGFIVGIHSASNFTNTNNYFTSVPKNFMELLTNQEAQQWVSGWRLNADSVLWGGHKVFMVKPEEPFQPVKEATQL [G39D],0.0265,0.0431,0.0475,0.0593,0.0458,0.0464,0.0352,0.0752,0.0453,0.0509,0.0527,0.0471,0.0444,0.0712,–,–,–,–,–
MGESLFKGPRDYNPISSSICHLTNESDGHTTSLYGIGFKPFIITNKHLFRRNNGTLVVQSLHGVFKVKDTTTLQQHLVDGRDMIIIRMPKDFPPFPQKLKFREPQREERICLVTTNFQTKSMSSMVSDTSCTFPSGDGIFWKHWIQTKDGQCGSPLVSTRDGFIVGIHSASNFTNTNNYFTSVPKNFMELLTNQEAQQWVSGWRLNADSVLWGGHKVFMVKPEEPFQPVKEATQL [G39K],0.038,0.0433,0.0385,–,0.0983,0.0445,–,0.0325,–,–,–,0.0472,0.0402,0.061,0.0414,0.0303,0.0506,0.0477,0.0404
MGESLFKGPRDYNPISSSICHLTNESDGHTTSLYGIGFSPFIITNKHLFRRNNGTLVVQSLHGVFKVKDTTTLQQHLVDGRDMIIIRMPKDFPPFPQKLKFREPQREERICLVTTNFQTKSMSSMVSDTSCTFPSGDGIFWKHWIQTKDGQCGSPLVSTRDGFIVGIHSASNFTNTNNYFTSVPKNFMELLTNQEAQQWVSGWRLNADSVLWGGHKVFMVKPEEPFQPVKEATQL [G39S],0.0373,0.0473,0.0544,–,0.0468,0.0387,0.0616,0.0285,0.0447,0.0558,0.0517,0.0434,0.0203,0.048,0.042,0.0503,0.0528,0.0364,0.0378
MGESLFKGPRDYNPISSSICHLTNESDGHTTSLYGIGFVPFIITNKHLFRRNNGTLVVQSLHGVFKVKDTTTLQQHLVDGRDMIIIRMPKDFPPFPQKLKFREPQREERICLVTTNFQTKSMSSMVSDTSCTFPSGDGIFWKHWIQTKDGQCGSPLVSTRDGFIVGIHSASNFTNTNNYFTSVPKNFMELLTNQEAQQWVSGWRLNADSVLWGGHKVFMVKPEEPFQPVKEATQL [G39V],0.0449,0.0464,0.0359,0.0382,0.0466,0.0413,0.0476,–,0.0312,0.0482,0.0319,0.0448,–,0.0441,0.0404,0.0395,0.0455,0.0413,0.0418
MGESLFKGPRDYNPISSSICHLTNESDGHTTSLYGIGFGAFIITNKHLFRRNNGTLVVQSLHGVFKVKDTTTLQQHLVDGRDMIIIRMPKDFPPFPQKLKFREPQREERICLVTTNFQTKSMSSMVSDTSCTFPSGDGIFWKHWIQTKDGQCGSPLVSTRDGFIVGIHSASNFTNTNNYFTSVPKNFMELLTNQEAQQWVSGWRLNADSVLWGGHKVFMVKPEEPFQPVKEATQL [P40A],0.117,–,0.131,–,0.117,–,0.108,0.11,0.107,0.139,0.116,0.116,0.123,–,0.139,0.0946,–,0.114,–
MGESLFKGPRDYNPISSSICHLTNESDGHTTSLYGIGFGPNIITNKHLFRRNNGTLVVQSLHGVFKVKDTTTLQQHLVDGRDMIIIRMPKDFPPFPQKLKFREPQREERICLVTTNFQTKSMSSMVSDTSCTFPSGDGIFWKHWIQTKDGQCGSPLVSTRDGFIVGIHSASNFTNTNNYFTSVPKNFMELLTNQEAQQWVSGWRLNADSVLWGGHKVFMVKPEEPFQPVKEATQL [F41N],0.105,0.0792,0.096,–,0.099,0.0832,–,–,0.108,0.11,0.0949,0.0933,–,–,0.0827,0.0909,0.0997,0.0901,0.0917
MGESLFKGPRDYNPISSSICHLTNESDGHTTSLYGIGFGPFDITNKHLFRRNNGTLVVQSLHGVFKVKDTTTLQQHLVDGRDMIIIRMPKDFPPFPQKLKFREPQREERICLVTTNFQTKSMSSMVSDTSCTFPSGDGIFWKHWIQTKDGQCGSPLVSTRDGFIVGIHSASNFTNTNNYFTSVPKNFMELLTNQEAQQWVSGWRLNADSVLWGGHKVFMVKPEEPFQPVKEATQL [I42D],0.0439,0.0469,–,–,–,0.0455,–,–,–,–,–,–,–,–,0.0469,0.0491,0.0526,–,0.0391
MGESLFKGPRDYNPISSSICHLTNESDGHTTSLYGIGFGPFGITNKHLFRRNNGTLVVQSLHGVFKVKDTTTLQQHLVDGRDMIIIRMPKDFPPFPQKLKFREPQREERICLVTTNFQTKSMSSMVSDTSCTFPSGDGIFWKHWIQTKDGQCGSPLVSTRDGFIVGIHSASNFTNTNNYFTSVPKNFMELLTNQEAQQWVSGWRLNADSVLWGGHKVFMVKPEEPFQPVKEATQL [I42G],0.0415,0.0438,0.0605,–,0.0778,0.0416,0.0546,–,0.0323,0.0423,0.0399,0.0428,–,–,0.0454,0.0429,–,0.0624,0.0401
MGESLFKGPRDYNPISSSICHLTNESDGHTTSLYGIGFGPFWITNKHLFRRNNGTLVVQSLHGVFKVKDTTTLQQHLVDGRDMIIIRMPKDFPPFPQKLKFREPQREERICLVTTNFQTKSMSSMVSDTSCTFPSGDGIFWKHWIQTKDGQCGSPLVSTRDGFIVGIHSASNFTNTNNYFTSVPKNFMELLTNQEAQQWVSGWRLNADSVLWGGHKVFMVKPEEPFQPVKEATQL [I42W],0.0847,0.0714,0.0871,–,0.079,0.0686,0.0841,0.069,0.0615,0.0768,0.0908,0.0703,–,–,0.0932,0.0794,0.075,0.0747,–
